# Experimental data as given in PMC12820563, “FoxP3 forms a head-to-head dimer in vivo and stabilizes its multimerization on adjacent microsatellites”.
# This is one part of the list.
# Target: T1, MBP-FoxP1dN (Mus musculus, UniProt P58462 326-579)
# T1 sequence: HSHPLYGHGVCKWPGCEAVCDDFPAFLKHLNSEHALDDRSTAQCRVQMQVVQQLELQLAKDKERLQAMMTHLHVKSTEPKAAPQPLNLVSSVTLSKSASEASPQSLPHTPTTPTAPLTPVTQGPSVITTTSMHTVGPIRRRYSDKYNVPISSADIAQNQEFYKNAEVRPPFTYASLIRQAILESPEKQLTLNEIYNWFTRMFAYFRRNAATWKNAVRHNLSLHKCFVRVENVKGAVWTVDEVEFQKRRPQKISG
# Assay: PD-seq (MBP pull-down with sequencing); 20 mM Tris-HCl pH 7.5, 100 mM NaCl, 1.5 mM MgCl2, 0.4 uM protein, 0.1 uM dsDNA library, 30 min, room temperature, amylose pull-down; high values mean tight binding
# Conditions: protein: recombinant; tags: His6-MBP; chain copies: 2; dsDNA, one strand shown
# Procedure, shortened: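 A degenerate double-stranded DNA library, filled in with Klenow, was added at 0.1 µM to 0.4 µM His6-MBP-tagged mouse FoxP3 or FoxP1 fragment lacking the N-terminus, expressed in E. coli. Incubation lasted 30 min at room temperature in Tris pH 7.5 buffer with NaCl and MgCl2, after which complexes were collected on amylose resin, washed three times, digested with proteinase K to free the DNA, barcoded by PCR and sequenced by Illumina. Binding is the pooled-replicate reads-per-million enrichment of pull-down over input.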
row,Sequence,binding signal
1,GATGATTGTTCTCCCAGCTGATGAATTACCACCTTCGAGTAAACAAATTTTCCTAATCTTTCTGTTCAAGCGCCATCTAC,0.981 RPM ratio (pull-down/input)
2,GATGATTGTTCTCCCAGCTGATGAATTTAACTACTCGAGTAAACAAATTTTCCTAATCTTTCTGTTCAAGCGCCATCTAC,0.942 RPM ratio (pull-down/input)
3,GATGATTGTTCTCCCAGCTGATGAATTCTATTTGTCGAGTAAACAAATTTTCCTAATCTTTCTGTTCAAGCGCCATCTAC,2.3 RPM ratio (pull-down/input)
4,GATGATTGTTCTCCCAGCTGATGAATTCGCAAACTCGAGTAAACAAATTTTCCTAATCTTTCTGTTCAAGCGCCATCTAC,0.956 RPM ratio (pull-down/input)
5,GATGATTGTTCTCCCAGCTGATGAATTGTCAACTTCGAGTAAACAAATTTTCCTAATCTTTCTGTTCAAGCGCCATCTAC,1.31 RPM ratio (pull-down/input)
6,GATGATTGTTCTCCCAGCTGATGAATTAGATCCATCGAGTAAACAAATTTTCCTAATCTTTCTGTTCAAGCGCCATCTAC,0.917 RPM ratio (pull-down/input)
7,GATGATTGTTCTCCCAGCTGATGAATTCTTAGTATCGAGTAAACAAATTTTCCTAATCTTTCTGTTCAAGCGCCATCTAC,0.963 RPM ratio (pull-down/input)
8,GATGATTGTTCTCCCAGCTGATGAATTTGAGCGGTCGAGTAAACAAATTTTCCTAATCTTTCTGTTCAAGCGCCATCTAC,0.767 RPM ratio (pull-down/input)
9,GATGATTGTTCTCCCAGCTGATGAATTCAAACATTCGAGTAAACAAATTTTCCTAATCTTTCTGTTCAAGCGCCATCTAC,1.36 RPM ratio (pull-down/input)
10,GATGATTGTTCTCCCAGCTGATGAATTATGCCAATCGAGTAAACAAATTTTCCTAATCTTTCTGTTCAAGCGCCATCTAC,1.13 RPM ratio (pull-down/input)
11,GATGATTGTTCTCCCAGCTGATGAATTCACCTATTCGAGTAAACAAATTTTCCTAATCTTTCTGTTCAAGCGCCATCTAC,0.929 RPM ratio (pull-down/input)
12,GATGATTGTTCTCCCAGCTGATGAATTCTGAATATCGAGTAAACAAATTTTCCTAATCTTTCTGTTCAAGCGCCATCTAC,0.974 RPM ratio (pull-down/input)
13,GATGATTGTTCTCCCAGCTGATGAATTACTGAAATCGAGTAAACAAATTTTCCTAATCTTTCTGTTCAAGCGCCATCTAC,1.14 RPM ratio (pull-down/input)
14,GATGATTGTTCTCCCAGCTGATGAATTTGATTACTCGAGTAAACAAATTTTCCTAATCTTTCTGTTCAAGCGCCATCTAC,1.56 RPM ratio (pull-down/input)
15,GATGATTGTTCTCCCAGCTGATGAATTTGCCTTCTCGAGTAAACAAATTTTCCTAATCTTTCTGTTCAAGCGCCATCTAC,0.966 RPM ratio (pull-down/input)
16,GATGATTGTTCTCCCAGCTGATGAATTTCGGCTATCGAGTAAACAAATTTTCCTAATCTTTCTGTTCAAGCGCCATCTAC,0.91 RPM ratio (pull-down/input)
17,GATGATTGTTCTCCCAGCTGATGAATTACATAGGTCGAGTAAACAAATTTTCCTAATCTTTCTGTTCAAGCGCCATCTAC,1.09 RPM ratio (pull-down/input)
18,GATGATTGTTCTCCCAGCTGATGAATTCTCGGGGTCGAGTAAACAAATTTTCCTAATCTTTCTGTTCAAGCGCCATCTAC,0.778 RPM ratio (pull-down/input)
19,GATGATTGTTCTCCCAGCTGATGAATTGTGCACGTCGAGTAAACAAATTTTCCTAATCTTTCTGTTCAAGCGCCATCTAC,1.05 RPM ratio (pull-down/input)
20,GATGATTGTTCTCCCAGCTGATGAATTGCGATTATCGAGTAAACAAATTTTCCTAATCTTTCTGTTCAAGCGCCATCTAC,1.22 RPM ratio (pull-down/input)
21,GATGATTGTTCTCCCAGCTGATGAATTAGCCGCGTCGAGTAAACAAATTTTCCTAATCTTTCTGTTCAAGCGCCATCTAC,0.832 RPM ratio (pull-down/input)

row,Sequence,binding signal
1,GATGATTGTTCTCCCAGCTGATGAATTCATGGGGTCGAGTAAACAAATTTTCCTAATCTTTCTGTTCAAGCGCCATCTAC,0.836 RPM ratio (pull-down/input)
2,GATGATTGTTCTCCCAGCTGATGAATTGATCTTTTCGAGTAAACAAATTTTCCTAATCTTTCTGTTCAAGCGCCATCTAC,1.14 RPM ratio (pull-down/input)
3,GATGATTGTTCTCCCAGCTGATGAATTTAGTCTCTCGAGTAAACAAATTTTCCTAATCTTTCTGTTCAAGCGCCATCTAC,0.934 RPM ratio (pull-down/input)
4,GATGATTGTTCTCCCAGCTGATGAATTTCAGCCATCGAGTAAACAAATTTTCCTAATCTTTCTGTTCAAGCGCCATCTAC,0.852 RPM ratio (pull-down/input)
5,GATGATTGTTCTCCCAGCTGATGAATTGTTAGCCTCGAGTAAACAAATTTTCCTAATCTTTCTGTTCAAGCGCCATCTAC,1.11 RPM ratio (pull-down/input)
6,GATGATTGTTCTCCCAGCTGATGAATTGCCCGGGTCGAGTAAACAAATTTTCCTAATCTTTCTGTTCAAGCGCCATCTAC,0.816 RPM ratio (pull-down/input)
7,GATGATTGTTCTCCCAGCTGATGAATTGTGGGCCTCGAGTAAACAAATTTTCCTAATCTTTCTGTTCAAGCGCCATCTAC,0.967 RPM ratio (pull-down/input)
8,GATGATTGTTCTCCCAGCTGATGAATTGCACTGCTCGAGTAAACAAATTTTCCTAATCTTTCTGTTCAAGCGCCATCTAC,1.06 RPM ratio (pull-down/input)
9,GATGATTGTTCTCCCAGCTGATGAATTCCGTCAGTCGAGTAAACAAATTTTCCTAATCTTTCTGTTCAAGCGCCATCTAC,0.812 RPM ratio (pull-down/input)
10,GATGATTGTTCTCCCAGCTGATGAATTAATCACCTCGAGTAAACAAATTTTCCTAATCTTTCTGTTCAAGCGCCATCTAC,0.973 RPM ratio (pull-down/input)
11,GATGATTGTTCTCCCAGCTGATGAATTACAACGGTCGAGTAAACAAATTTTCCTAATCTTTCTGTTCAAGCGCCATCTAC,1.17 RPM ratio (pull-down/input)
12,GATGATTGTTCTCCCAGCTGATGAATTACCTTTTTCGAGTAAACAAATTTTCCTAATCTTTCTGTTCAAGCGCCATCTAC,1.11 RPM ratio (pull-down/input)
13,GATGATTGTTCTCCCAGCTGATGAATTTTTGAGTTCGAGTAAACAAATTTTCCTAATCTTTCTGTTCAAGCGCCATCTAC,0.92 RPM ratio (pull-down/input)
14,GATGATTGTTCTCCCAGCTGATGAATTTGTCGCTTCGAGTAAACAAATTTTCCTAATCTTTCTGTTCAAGCGCCATCTAC,1.08 RPM ratio (pull-down/input)
15,GATGATTGTTCTCCCAGCTGATGAATTGATATGGTCGAGTAAACAAATTTTCCTAATCTTTCTGTTCAAGCGCCATCTAC,1.06 RPM ratio (pull-down/input)
16,GATGATTGTTCTCCCAGCTGATGAATTGTGTCCGTCGAGTAAACAAATTTTCCTAATCTTTCTGTTCAAGCGCCATCTAC,0.991 RPM ratio (pull-down/input)
17,GATGATTGTTCTCCCAGCTGATGAATTAATCAATTCGAGTAAACAAATTTTCCTAATCTTTCTGTTCAAGCGCCATCTAC,1.05 RPM ratio (pull-down/input)
18,GATGATTGTTCTCCCAGCTGATGAATTAAACATGTCGAGTAAACAAATTTTCCTAATCTTTCTGTTCAAGCGCCATCTAC,1.32 RPM ratio (pull-down/input)
19,GATGATTGTTCTCCCAGCTGATGAATTAACCCGATCGAGTAAACAAATTTTCCTAATCTTTCTGTTCAAGCGCCATCTAC,0.776 RPM ratio (pull-down/input)
20,GATGATTGTTCTCCCAGCTGATGAATTAATCTAGTCGAGTAAACAAATTTTCCTAATCTTTCTGTTCAAGCGCCATCTAC,0.881 RPM ratio (pull-down/input)
21,GATGATTGTTCTCCCAGCTGATGAATTAGCTGCATCGAGTAAACAAATTTTCCTAATCTTTCTGTTCAAGCGCCATCTAC,1.23 RPM ratio (pull-down/input)

row,Sequence,binding signal
1,GATGATTGTTCTCCCAGCTGATGAATTTAATCCCTCGAGTAAACAAATTTTCCTAATCTTTCTGTTCAAGCGCCATCTAC,0.85 RPM ratio (pull-down/input)
2,GATGATTGTTCTCCCAGCTGATGAATTCTCCTCTTCGAGTAAACAAATTTTCCTAATCTTTCTGTTCAAGCGCCATCTAC,0.801 RPM ratio (pull-down/input)
3,GATGATTGTTCTCCCAGCTGATGAATTCGTGATGTCGAGTAAACAAATTTTCCTAATCTTTCTGTTCAAGCGCCATCTAC,1.15 RPM ratio (pull-down/input)
4,GATGATTGTTCTCCCAGCTGATGAATTGACAGCGTCGAGTAAACAAATTTTCCTAATCTTTCTGTTCAAGCGCCATCTAC,1.09 RPM ratio (pull-down/input)
5,GATGATTGTTCTCCCAGCTGATGAATTCCGGTTTTCGAGTAAACAAATTTTCCTAATCTTTCTGTTCAAGCGCCATCTAC,0.893 RPM ratio (pull-down/input)
6,GATGATTGTTCTCCCAGCTGATGAATTCCGAATTTCGAGTAAACAAATTTTCCTAATCTTTCTGTTCAAGCGCCATCTAC,0.833 RPM ratio (pull-down/input)
7,GATGATTGTTCTCCCAGCTGATGAATTATGCTCATCGAGTAAACAAATTTTCCTAATCTTTCTGTTCAAGCGCCATCTAC,1.09 RPM ratio (pull-down/input)
8,GATGATTGTTCTCCCAGCTGATGAATTTTACTGCTCGAGTAAACAAATTTTCCTAATCTTTCTGTTCAAGCGCCATCTAC,0.888 RPM ratio (pull-down/input)
9,GATGATTGTTCTCCCAGCTGATGAATTGGTTGTCTCGAGTAAACAAATTTTCCTAATCTTTCTGTTCAAGCGCCATCTAC,1.05 RPM ratio (pull-down/input)
10,GATGATTGTTCTCCCAGCTGATGAATTCCGCACATCGAGTAAACAAATTTTCCTAATCTTTCTGTTCAAGCGCCATCTAC,0.918 RPM ratio (pull-down/input)
11,GATGATTGTTCTCCCAGCTGATGAATTCGAAATATCGAGTAAACAAATTTTCCTAATCTTTCTGTTCAAGCGCCATCTAC,0.966 RPM ratio (pull-down/input)
12,GATGATTGTTCTCCCAGCTGATGAATTTATCATTTCGAGTAAACAAATTTTCCTAATCTTTCTGTTCAAGCGCCATCTAC,1.29 RPM ratio (pull-down/input)
13,GATGATTGTTCTCCCAGCTGATGAATTCTTTCGCTCGAGTAAACAAATTTTCCTAATCTTTCTGTTCAAGCGCCATCTAC,0.866 RPM ratio (pull-down/input)
14,GATGATTGTTCTCCCAGCTGATGAATTGCCAACATCGAGTAAACAAATTTTCCTAATCTTTCTGTTCAAGCGCCATCTAC,1.34 RPM ratio (pull-down/input)
15,GATGATTGTTCTCCCAGCTGATGAATTCGAGCTATCGAGTAAACAAATTTTCCTAATCTTTCTGTTCAAGCGCCATCTAC,0.841 RPM ratio (pull-down/input)
16,GATGATTGTTCTCCCAGCTGATGAATTACCACGATCGAGTAAACAAATTTTCCTAATCTTTCTGTTCAAGCGCCATCTAC,0.951 RPM ratio (pull-down/input)
17,GATGATTGTTCTCCCAGCTGATGAATTTGAATTATCGAGTAAACAAATTTTCCTAATCTTTCTGTTCAAGCGCCATCTAC,0.969 RPM ratio (pull-down/input)
18,GATGATTGTTCTCCCAGCTGATGAATTGAGGGTATCGAGTAAACAAATTTTCCTAATCTTTCTGTTCAAGCGCCATCTAC,0.925 RPM ratio (pull-down/input)
19,GATGATTGTTCTCCCAGCTGATGAATTGGGTGTTTCGAGTAAACAAATTTTCCTAATCTTTCTGTTCAAGCGCCATCTAC,0.993 RPM ratio (pull-down/input)
20,GATGATTGTTCTCCCAGCTGATGAATTGCCTCGGTCGAGTAAACAAATTTTCCTAATCTTTCTGTTCAAGCGCCATCTAC,0.887 RPM ratio (pull-down/input)
21,GATGATTGTTCTCCCAGCTGATGAATTGTTCTTTTCGAGTAAACAAATTTTCCTAATCTTTCTGTTCAAGCGCCATCTAC,1.69 RPM ratio (pull-down/input)
